From the BET-seq Pho4 binding data (Le et al. 2018)
This is one part of the list. Values were computed here from the reads of four pooled replicates and scatter widely.

Molecular target: T1, Pho4 (S. cerevisiae) (UniProt P07270)
T1 sequence: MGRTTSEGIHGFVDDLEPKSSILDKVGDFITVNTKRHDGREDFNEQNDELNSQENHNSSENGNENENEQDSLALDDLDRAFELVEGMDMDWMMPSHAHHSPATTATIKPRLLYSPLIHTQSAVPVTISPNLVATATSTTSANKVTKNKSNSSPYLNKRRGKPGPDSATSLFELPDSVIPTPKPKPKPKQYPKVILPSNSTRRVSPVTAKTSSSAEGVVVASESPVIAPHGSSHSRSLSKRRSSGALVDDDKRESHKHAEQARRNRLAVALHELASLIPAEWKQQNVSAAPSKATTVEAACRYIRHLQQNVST
Assay: relative binding free energy (BET-seq); higher = weaker binding
Conditions: reference: library average

Row | Sequence | relative binding free energy
1 | CATTGCACGTGCGGAG | 0.01 kcal/mol
2 | CTGGACACGTGTAAGG | 0.16 kcal/mol
3 | AGTTACACGTGAGGCG | 0.38 kcal/mol
4 | GTGTTCACGTGCTAAT | 0.17 kcal/mol
5 | TGACACACGTGGTGTT | -0.13 kcal/mol
6 | GTGGGCACGTGGGTAA | -0.19 kcal/mol
7 | TACTTCACGTGAAGGT | 0.24 kcal/mol
8 | TTGTACACGTGAGTCT | 0.29 kcal/mol
9 | TTTATCACGTGACTAT | 0.21 kcal/mol
10 | CGGGCCACGTGGATGG | -0.25 kcal/mol
11 | AAGGGCACGTGCCGGG | -0.11 kcal/mol
12 | TAAGCCACGTGGGTTA | -0.26 kcal/mol
13 | TGCTGCACGTGTAGGA | 0.07 kcal/mol
14 | TGGGGCACGTGAGTGT | 0.1 kcal/mol
15 | GTCTGCACGTGTATGT | 0.07 kcal/mol
16 | GGTGTCACGTGTAGGA | 0.22 kcal/mol
17 | CGAATCACGTGGGGGG | -0.08 kcal/mol
18 | CGTGGCACGTGAAGGC | 0.13 kcal/mol
19 | GCATACACGTGTGGTG | 0.1 kcal/mol
20 | TTTCACACGTGTATGT | 0.06 kcal/mol
21 | TTTTGCACGTGCGCTT | -0.11 kcal/mol
22 | TTTCTCACGTGCAGTT | 0.28 kcal/mol
23 | TGCGGCACGTGAGCGT | -0.12 kcal/mol

Row | Sequence | relative binding free energy
24 | ACTTACACGTGTTGGA | 0.18 kcal/mol
25 | CGGGTCACGTGGGCTA | -0.07 kcal/mol
26 | TGTGTCACGTGTGGTT | 0.15 kcal/mol
27 | ATGGGCACGTGTTTGG | -0.05 kcal/mol
28 | CTTGACACGTGAGTGT | 0.15 kcal/mol
29 | GGTCGCACGTGGGATA | -0.07 kcal/mol
30 | ATAATCACGTGGTGTT | 0.07 kcal/mol
31 | TATGTCACGTGTGCAG | 0.06 kcal/mol
32 | TGGATCACGTGTGTGT | 0.15 kcal/mol
33 | TTGCACACGTGGGAGG | 0.02 kcal/mol
34 | AAGCGCACGTGAGGGG | 0.09 kcal/mol
35 | ATTGTCACGTGTAGGC | 0.21 kcal/mol
36 | TTGGACACGTGGGTTA | -0.13 kcal/mol
37 | GATCACACGTGTTGGT | 0.11 kcal/mol
38 | GTTTGCACGTGAGCAT | 0.26 kcal/mol
39 | TGTCGCACGTGAGATT | 0.16 kcal/mol
40 | CTTGTCACGTGCAGGG | 0.03 kcal/mol
41 | ATATGCACGTGTGGTG | -0.02 kcal/mol
42 | GTTCGCACGTGGAGTT | -0.08 kcal/mol
43 | GTGGGCACGTGGCGAA | -0.18 kcal/mol
44 | TAGGGCACGTGTCGGA | -0.15 kcal/mol
45 | AGTTGCACGTGTCATA | -0.01 kcal/mol
46 | GTATACACGTGAGGTA | 0.24 kcal/mol

Row | Sequence | relative binding free energy
47 | GGAGGCACGTGGGTCG | -0.29 kcal/mol
48 | AGTGTCACGTGGCGTT | 0.04 kcal/mol
49 | CCGGTCACGTGTATGG | 0.12 kcal/mol
50 | GGATGCACGTGGATTG | 0.19 kcal/mol
51 | AATGGCACGTGATGTC | 0.14 kcal/mol
52 | TATGTCACGTGTAAAA | 0.07 kcal/mol
53 | TAGCTCACGTGGGGTG | 0.15 kcal/mol
54 | AGTGACACGTGGCGCG | -0.15 kcal/mol
55 | TTTGGCACGTGGGGGA | -0.14 kcal/mol
56 | GAGGGCACGTGGTGTT | -0.09 kcal/mol
57 | AATGCCACGTGGTGGA | -0.24 kcal/mol
58 | TTGGTCACGTGGCTTT | 0.12 kcal/mol
59 | ATTCTCACGTGGATGG | 0.24 kcal/mol
60 | AAGGGCACGTGAAGAT | 0.19 kcal/mol
61 | TACTTCACGTGGGTTC | 0.25 kcal/mol
62 | TTATGCACGTGAGTTT | 0.01 kcal/mol
63 | CGCGGCACGTGTAGTT | -0.08 kcal/mol
64 | TAGCTCACGTGAAGGG | 0.33 kcal/mol
65 | GTTAGCACGTGTTCAG | 0.02 kcal/mol
66 | CTTGTCACGTGTTAAG | 0.2 kcal/mol
67 | AAAGGCACGTGAGAGG | 0.16 kcal/mol
68 | GGTTTCACGTGTGTAC | 0.38 kcal/mol
69 | GGCTGCACGTGGAGGC | 0.07 kcal/mol

Row | Sequence | relative binding free energy
70 | GAGGTCACGTGAGGTG | 0.39 kcal/mol
71 | CGTGGCACGTGTTGGG | -0.1 kcal/mol
72 | AATTTCACGTGTGGGC | 0.35 kcal/mol
73 | TAGTTCACGTGGGGTG | 0.16 kcal/mol
74 | GGTGCCACGTGCAAGT | 0.03 kcal/mol
75 | TATTTCACGTGTTTTT | 0.24 kcal/mol
76 | AAGATCACGTGAGGAT | 0.25 kcal/mol
77 | TGGAACACGTGGGGTT | 0.02 kcal/mol
78 | AGTAGCACGTGAAGGA | 0.18 kcal/mol
79 | TTTGCCACGTGGTGCG | -0.26 kcal/mol
80 | TTTTGCACGTGGCTTC | -0.02 kcal/mol
81 | AGAGCCACGTGGGTAT | -0.01 kcal/mol
82 | GTGGTCACGTGAGTTT | 0.37 kcal/mol
83 | GTTTGCACGTGAATGT | 0.23 kcal/mol
84 | AGGTGCACGTGGAGGG | -0.06 kcal/mol
85 | CGGTACACGTGTGTTT | 0.06 kcal/mol
86 | GATCGCACGTGAGGTT | 0.33 kcal/mol
87 | TGGGACACGTGATGCG | 0.2 kcal/mol
88 | AGAGTCACGTGCTTGG | 0.07 kcal/mol
89 | GGGGTCACGTGCTAAG | 0.09 kcal/mol
90 | CTTTACACGTGGTCTG | 0.04 kcal/mol
91 | TCTGCCACGTGTGGTA | -0.01 kcal/mol
92 | TGGCGCACGTGGCGGT | -0.14 kcal/mol

Row | Sequence | relative binding free energy
93 | GTGCTCACGTGAGGTT | 0.22 kcal/mol
94 | GGTCGCACGTGGTCGT | -0.11 kcal/mol
95 | GTAATCACGTGGAATG | 0.08 kcal/mol
96 | ATGGTCACGTGATCGG | 0.27 kcal/mol
97 | GTGGCCACGTGAGTAT | 0.16 kcal/mol
98 | ACGGTCACGTGCGTGG | 0.03 kcal/mol
99 | GAGGTCACGTGGTGGT | 0.2 kcal/mol
100 | TTGAGCACGTGTTGGT | -0.05 kcal/mol
101 | ATTGCCACGTGTAAGG | 0.05 kcal/mol
102 | TTTAACACGTGGTCTG | -0.09 kcal/mol
103 | TTGTGCACGTGTTGGG | 0.02 kcal/mol
104 | TTCGGCACGTGTAGGA | -0.1 kcal/mol
105 | AGATGCACGTGGAATT | 0.08 kcal/mol
106 | AATACCACGTGTTGTT | -0.07 kcal/mol
107 | AGTTCCACGTGTATGG | 0.07 kcal/mol
108 | TTCGGCACGTGGTTCG | -0.1 kcal/mol
109 | GAGGGCACGTGCCTTG | -0.08 kcal/mol
110 | TTTTACACGTGCGCTT | 0.1 kcal/mol
111 | GCTGGCACGTGAGTGG | 0.21 kcal/mol
112 | ATAGTCACGTGGTTAT | 0 kcal/mol
113 | AGTGGCACGTGGCACT | -0.03 kcal/mol
114 | TAGTGCACGTGTGGAG | 0.05 kcal/mol
115 | GCTTTCACGTGTGGCT | 0.36 kcal/mol
